# Source: the supplement of paper PMC8728848
# The list shows a part of the results.
# B1: Pbx1 (Cryptococcus neoformans) (protein)
# chain: ATTKCLVSGDQDSINNALALGGEGTTVTLCPGSVHRLNSSIIFTAPSQTLTTLGNPKDRNRAMLVVDGEDLACAIRADCKQCSHAMIRSLVIDGNRPQLLRIPKGDALIEVGNAESQTVRDCKLYEPRGWSALHFREGDERQCRFGHIVDNEIGPCGEEWDDEYDSMDETKPLWGNPRADGISLACKDSIVERNVVYDATDGAIVLFGSAGSTVKNNHVYARTRVILGGINLVDYEPWDGDYTNVKVHHNHLYALGRYFKVGIVIGPASWSDDTESVVHSASVTDNEFSGGYWGYGIVVASAKNFEVLRNKVIWDGEQGVARFSGVPGSRCPKAPENGKPTAFLINRGSAKGIFQDDFVNGEVQHIICLNPDQDPPYKPWRFRDSPEAIAAKQAENPTANSAFDSRIAEALVSYQMSLLNSMDAMTQKVEHLTNPIVDDALPFVHEHERAEADKKARQEASRKEKESGNKDVDMLNVKVEELEKSGRRLKKALDGLKSDFEGLSGRLKKSADENKPIIETIFVTSQNLLLGATSQQN
# What was measured:
# Experiment in all cases: glycan array binding signal (z-score within array); higher = stronger binding
# Details in all cases: glycan notation: IUPAC condensed, linker removed
# [1] = biological target: Gal(b1-4)GlcNAc(b1-3)Gal(b1-4)GlcNAc(b1-3)Gal(b1-4)GlcNAc(b1-3)Gal(b1-4)GlcNAc(b1-2)[Gal(b1-4)GlcNAc(b1-3)Gal(b1-4)GlcNAc(b1-3)Gal(b1-4)GlcNAc(b1-3)Gal(b1-4)GlcNAc(b1-6)]Man(a1-6)[Gal(b1-4)GlcNAc(b1-3)Gal(b1-4)GlcNAc(b1-3)Gal(b1-4)GlcNAc(b1-3)Gal(b1-4)GlcNAc(b1-2)Man(a1-3)]Man(b1-4)GlcNAc(b1-4)[Fuc(a1-6)]GlcNAc
# In short: (§1)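 Negative Z-scores can be read as non-binding. The Z-score is calculated within each array and then averaged across arrays of one protein sequence at different concentrations or buffers and across linkers. Arrays, 3228 in all, were curated from the Consortium for Functional Glycomics database and kept only where the protein sequence was available.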
# [2] = biological target: Gal(b1-4)GlcNAc(b1-3)Gal(b1-4)GlcNAc(b1-3)Gal(b1-4)GlcNAc(b1-3)Gal(b1-4)GlcNAc(b1-3)Gal(b1-4)GlcNAc(b1-2)Man(a1-3)[Gal(b1-4)GlcNAc(b1-3)Gal(b1-4)GlcNAc(b1-3)Gal(b1-4)GlcNAc(b1-3)Gal(b1-4)GlcNAc(b1-3)Gal(b1-4)GlcNAc(b1-2)Man(a1-6)]Man(b1-4)GlcNAc(b1-4)GlcNAc
# In short: as §1
# [3] = biological target: Gal(b1-4)GlcNAc(b1-3)Gal(b1-4)GlcNAc(b1-3)Gal(b1-4)GlcNAc(b1-3)Gal(b1-4)GlcNAc(b1-3)Gal(b1-4)GlcNAc(b1-2)Man(a1-3)[Gal(b1-4)GlcNAc(b1-3)Gal(b1-4)GlcNAc(b1-3)Gal(b1-4)GlcNAc(b1-3)Gal(b1-4)GlcNAc(b1-3)Gal(b1-4)GlcNAc(b1-2)Man(a1-6)]Man(b1-4)GlcNAc(b1-4)[Fuc(a1-6)]GlcNAc
# In short: as §1
# [4] = biological target: Gal(b1-4)GlcNAc(b1-3)Gal(b1-4)GlcNAc(b1-3)Gal(b1-4)GlcNAc(b1-3)Gal(b1-4)GlcNAc(b1-3)Gal(b1-4)GlcNAc(b1-2)[Gal(b1-4)GlcNAc(b1-3)Gal(b1-4)GlcNAc(b1-3)Gal(b1-4)GlcNAc(b1-3)Gal(b1-4)GlcNAc(b1-3)Gal(b1-4)GlcNAc(b1-6)]Man(a1-6)[Gal(b1-4)GlcNAc(b1-3)Gal(b1-4)GlcNAc(b1-3)Gal(b1-4)GlcNAc(b1-3)Gal(b1-4)GlcNAc(b1-3)Gal(b1-4)GlcNAc(b1-2)Man(a1-3)]Man(b1-4)GlcNAc(b1-4)[Fuc(a1-6)]GlcNAc
# In short: as §1
# [5] = biological target: Gal(b1-4)GlcNAc(b1-3)Gal(b1-4)GlcNAc(b1-3)Gal(b1-4)GlcNAc(b1-3)Gal(b1-4)GlcNAc(b1-3)Gal(b1-4)GlcNAc(b1-3)Gal(b1-4)GlcNAc(b1-2)Man(a1-3)[Gal(b1-4)GlcNAc(b1-3)Gal(b1-4)GlcNAc(b1-3)Gal(b1-4)GlcNAc(b1-3)Gal(b1-4)GlcNAc(b1-3)Gal(b1-4)GlcNAc(b1-3)Gal(b1-4)GlcNAc(b1-2)Man(a1-6)]Man(b1-4)GlcNAc(b1-4)GlcNAc
# In short: as §1
# [6] = biological target: Gal(b1-4)GlcNAc(b1-3)Gal(b1-4)GlcNAc(b1-3)GalNAc
# In short: as §1
# [7] = biological target: Gal(b1-4)GlcNAc(b1-3)Gal(b1-4)GlcNAc(b1-3)[Gal(b1-4)GlcNAc(b1-3)Gal(b1-4)GlcNAc(b1-6)]GalNAc
# In short: as §1
# [8] = biological target: Gal(b1-4)GlcNAc(b1-3)Gal(b1-4)GlcNAc(b1-6)[Gal(b1-3)]GalNAc
# In short: as §1
# [9] = biological target: Gal(b1-4)GlcNAc(b1-3)Gal(b1-4)[Fuc(a1-3)]GlcNAc(b1-3)Gal(b1-4)[Fuc(a1-3)]GlcNAc
# In short: as §1
# [10] = biological target: Gal(b1-4)GlcNAc(b1-3)GalNAc
# In short: as §1
# [11] = biological target: Gal(b1-4)GlcNAc(b1-3)[Fuc(a1-3)GlcNAc(b1-6)]Gal(b1-4)Glc
# In short: as §1
# [12] = biological target: Gal(b1-4)GlcNAc(b1-3)[Gal(b1-4)GlcNAc(b1-6)]Gal(b1-4)GlcNAc
# In short: as §1
# [13] = biological target: Gal(b1-4)GlcNAc(b1-3)[GlcNAc(b1-6)]Gal(b1-4)GlcNAc
# In short: as §1
# [14] = biological target: Gal(b1-4)GlcNAc(b1-6)Gal(b1-4)GlcNAc
# In short: as §1
# [15] = biological target: Gal(b1-4)GlcNAc(b1-6)GalNAc
# In short: as §1
# [16] = biological target: Gal(b1-4)GlcNAc(b1-6)[Gal(b1-3)]GalNAc
# In short: as §1
# [17] = biological target: Gal(b1-4)GlcNAc(b1-6)[Gal(b1-4)GlcNAc(b1-3)]GalNAc
# In short: as §1
# Gal(b1-4)GlcNAc6P = biological target: Gal(b1-4)GlcNAc6P
# In short: as §1
# Gal(b1-6)Gal = biological target: Gal(b1-6)Gal
# In short: as §1
# Gal3S(b1-3)GalNAc = biological target: Gal3S(b1-3)GalNAc
# In short: as §1
# Gal3S(b1-3)GlcNAc = biological target: Gal3S(b1-3)GlcNAc
# In short: as §1
# [18] = biological target: Gal3S(b1-3)[Fuc(a1-4)]GlcNAc
# In short: as §1
# Gal3S(b1-4)Glc = biological target: Gal3S(b1-4)Glc
# In short: as §1
# Gal3S(b1-4)Glc6S = biological target: Gal3S(b1-4)Glc6S
# In short: as §1
# Gal3S(b1-4)GlcNAc = biological target: Gal3S(b1-4)GlcNAc
# In short: as §1
# [19] = biological target: Gal3S(b1-4)[Fuc(a1-3)]Glc6S
# In short: as §1
# [20] = biological target: Gal3S(b1-4)[Fuc(a1-3)]GlcNAc
# In short: as §1
# [21] = biological target: Gal3S(b1-4)[Fuc(a1-3)]GlcNAc6S
# In short: as §1
# Gal3S4S(b1-4)GlcNAc = biological target: Gal3S4S(b1-4)GlcNAc
# In short: as §1
# Gal3S6S(b1-4)GlcNAc = biological target: Gal3S6S(b1-4)GlcNAc
# In short: as §1
# Gal3S6S(b1-4)GlcNAc6S = biological target: Gal3S6S(b1-4)GlcNAc6S
# In short: as §1
# Gal4S(b1-4)GlcNAc = biological target: Gal4S(b1-4)GlcNAc
# In short: as §1
# Gal4S6S(b1-4)GlcNAc = biological target: Gal4S6S(b1-4)GlcNAc
# In short: as §1
# Gal6P(b1-4)GlcNAc = biological target: Gal6P(b1-4)GlcNAc
# In short: as §1
# Gal6S(b1-3)GlcNAc = biological target: Gal6S(b1-3)GlcNAc
# In short: as §1
# Gal6S(b1-3)GlcNAc6S = biological target: Gal6S(b1-3)GlcNAc6S
# In short: as §1
# Gal6S(b1-4)Glc = biological target: Gal6S(b1-4)Glc
# In short: as §1
# Gal6S(b1-4)Glc6S = biological target: Gal6S(b1-4)Glc6S
# In short: as §1
binder,measurement,setting,value
B1,glycan array binding signal (z-score),[1],-0.055
same,glycan array binding signal (z-score),[2],0.178
same,glycan array binding signal (z-score),[3],5.6
same,glycan array binding signal (z-score),[4],4.38
same,glycan array binding signal (z-score),[5],1.03
same,glycan array binding signal (z-score),[6],-0.312
same,glycan array binding signal (z-score),[7],-0.195
same,glycan array binding signal (z-score),[8],2.33
same,glycan array binding signal (z-score),[9],-0.58
same,glycan array binding signal (z-score),[10],-0.69
same,glycan array binding signal (z-score),[11],-0.416
same,glycan array binding signal (z-score),[12],-0.545
same,glycan array binding signal (z-score),[13],-0.407
same,glycan array binding signal (z-score),[14],-0.231
same,glycan array binding signal (z-score),[15],-0.106
same,glycan array binding signal (z-score),[16],0.047
same,glycan array binding signal (z-score),[17],-0.486
same,glycan array binding signal (z-score),Gal(b1-4)GlcNAc6P,0.187
same,glycan array binding signal (z-score),Gal(b1-6)Gal,-0.233
same,glycan array binding signal (z-score),Gal3S(b1-3)GalNAc,-0.637
same,glycan array binding signal (z-score),Gal3S(b1-3)GlcNAc,-0.239
same,glycan array binding signal (z-score),[18],-0.47
same,glycan array binding signal (z-score),Gal3S(b1-4)Glc,1.28
same,glycan array binding signal (z-score),Gal3S(b1-4)Glc6S,1.12
same,glycan array binding signal (z-score),Gal3S(b1-4)GlcNAc,0.074
same,glycan array binding signal (z-score),[19],1.23
same,glycan array binding signal (z-score),[20],-0.485
same,glycan array binding signal (z-score),[21],-0.436
same,glycan array binding signal (z-score),Gal3S4S(b1-4)GlcNAc,-0.067
same,glycan array binding signal (z-score),Gal3S6S(b1-4)GlcNAc,-0.248
same,glycan array binding signal (z-score),Gal3S6S(b1-4)GlcNAc6S,-0.29
same,glycan array binding signal (z-score),Gal4S(b1-4)GlcNAc,-0.557
same,glycan array binding signal (z-score),Gal4S6S(b1-4)GlcNAc,-0.366
same,glycan array binding signal (z-score),Gal6P(b1-4)GlcNAc,-0.364
same,glycan array binding signal (z-score),Gal6S(b1-3)GlcNAc,0.304
same,glycan array binding signal (z-score),Gal6S(b1-3)GlcNAc6S,-0.729
same,glycan array binding signal (z-score),Gal6S(b1-4)Glc,0.117
same,glycan array binding signal (z-score),Gal6S(b1-4)Glc6S,-0.351
